Experimental data reported in PMC7063047.

Target: WT1 co-immunoprecipitated with FLAG-USP9X from HEK 293T cells [human (endogenous in HEK 293T)]
Assay: co-immunoprecipitation (anti-FLAG IP, western blot quantification)
Settings: n = 4 biologically independent experiments, nocodazole 15 h for mitotic arrest as described in c, parent: 1, read off a plot

- ratio to parent: 0.56
Substance: FLAG-tagged USP9X^WT mutant S2563A [not stated] / WT1 co-immunoprecipitated with FLAG-USP9X from HEK 293T cells [human (endogenous in HEK 293T)] chain 1 S2563A
